The target of the experiment is Estrogen receptor (Homo sapiens) (UniProt P03372). Briefly: ATG_ERa_TRANS: Attagene TRANS-FACTORIAL HepG2 Assay for human Estrogen Receptor alpha (ERa) (AID 2282970). The note with it: HepG2 Attagene TRANS ERa GAL4 reporter, mRNA. A digest of the protocol: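 HepG2 cells transiently transfected with multiplexed GAL4-UAS reporter units; ERa activity read via exogenous chimeric NR-Gal4 protein. After 24 hour compound exposure, reporter mRNA measured by RT-PCR with 6-FAM labelling and capillary electrophoresis; gain-of-signal fitted relative to DMSO.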
UniProt P03372, sequence (P03372 whole entry, looked up, the tested form may be a part): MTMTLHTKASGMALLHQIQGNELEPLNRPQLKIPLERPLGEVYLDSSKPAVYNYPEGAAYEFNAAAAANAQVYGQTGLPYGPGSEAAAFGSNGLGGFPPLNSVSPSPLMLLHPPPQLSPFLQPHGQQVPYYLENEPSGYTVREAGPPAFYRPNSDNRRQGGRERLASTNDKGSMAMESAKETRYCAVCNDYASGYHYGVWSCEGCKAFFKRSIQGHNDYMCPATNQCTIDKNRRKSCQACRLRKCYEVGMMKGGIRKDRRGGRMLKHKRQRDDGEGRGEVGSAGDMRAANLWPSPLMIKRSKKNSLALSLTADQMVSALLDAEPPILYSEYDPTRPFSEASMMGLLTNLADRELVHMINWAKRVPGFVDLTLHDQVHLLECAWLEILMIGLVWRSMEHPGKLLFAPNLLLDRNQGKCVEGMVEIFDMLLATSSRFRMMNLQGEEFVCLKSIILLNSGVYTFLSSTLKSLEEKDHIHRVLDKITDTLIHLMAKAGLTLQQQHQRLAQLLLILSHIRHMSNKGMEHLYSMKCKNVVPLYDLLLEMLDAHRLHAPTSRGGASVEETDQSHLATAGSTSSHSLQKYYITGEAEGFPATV

Results filed as inconclusive are left out. Rule for the calls: active = hit-call score of the fitted dose curve at least 0.9, where 1 is the maximum; inconclusive = response in the unintended direction; inactive = score below 0.9. The source holds more than one record for some entries. This is not the full list of results. There may be further records. The values listed for one entry are repeats (runs, samples, wells, individuals or studies).

Turning to `CCCCCCCc1ccc(O)cc1`, the AC50 – broadly, the concentration at which the activity in the assay is half-maximal – is “active: 1.95, 1.39, 4.6, 5.14 µM [separate samples]”.

(Values after PubChem BioAssay (EPA / NIEHS).)
